In all, about 33,000 sequences were measured (“E-score (-0.5 to 0.5)”: median about -0.035, highest 2% from about 0.34 on). Some of the results follow.
Biological target: T1, Mot3 (UniProt P54785)
T1 sequence: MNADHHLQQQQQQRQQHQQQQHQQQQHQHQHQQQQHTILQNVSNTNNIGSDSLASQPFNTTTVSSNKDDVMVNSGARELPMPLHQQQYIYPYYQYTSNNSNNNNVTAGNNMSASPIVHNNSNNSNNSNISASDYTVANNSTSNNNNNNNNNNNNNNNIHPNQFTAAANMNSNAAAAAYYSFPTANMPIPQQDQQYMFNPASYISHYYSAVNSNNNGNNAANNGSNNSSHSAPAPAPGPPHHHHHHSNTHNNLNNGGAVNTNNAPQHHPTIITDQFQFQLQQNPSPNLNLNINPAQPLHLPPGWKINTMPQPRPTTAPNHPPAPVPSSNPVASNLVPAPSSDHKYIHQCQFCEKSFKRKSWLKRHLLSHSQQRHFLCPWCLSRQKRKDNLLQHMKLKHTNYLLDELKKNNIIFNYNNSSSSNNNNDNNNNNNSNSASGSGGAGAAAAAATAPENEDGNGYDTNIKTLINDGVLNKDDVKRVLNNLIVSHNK
Assay: PBM E-score (8-mer binding enrichment) (E-score (-0.5 to 0.5)); higher = stronger / more preferred TF binding; most listed sequences are background and not binding sites
Conditions: protein concentration: 200 nM; construct: GST-full length
Protocol: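 Universal 'all 10-mer' protein binding microarrays (Agilent AMADID 015681) probed with GST-tagged S. cerevisiae TFs (full-length or DBD) made by in vitro transcription/translation (PURExpress), about 100-200 nM. Bound TF was detected with fluorescent anti-GST. Each ungapped 8-mer (which stands for itself and its reverse complement) is scored by the PBM enrichment score (E-score), a modified Wilcoxon-Mann-Whitney statistic from -0.5 to +0.5, computed with the Universal PBM Analysis Suite. Scale: above 0.35 generally sequence-specific binding.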

Sequence	PBM E-score
GAGAAGCC	-0.193
TGCCCGAA	-0.0549
AATACCGC	-0.0278
CCACTAGG	-0.224
CTTCATAA	-0.082
GGTCGCAC	-0.104
CGACAACA	0.197
ATTTTCCA	-0.0526
CATTGACC	0.0128
GGGTCCTA	-0.159
ACTTCCAT	0.00123
CGGGGGTC	-0.155
AAATACAA	0.281
CGGACACG	-0.117
AACTGTAG	0.0868
AAGTATCC	-0.0961
GGGAACCC	-0.279
CATGAAAA	0.137
CGACGAGA	-0.0757
CCGGCTCG	-0.366
GCCTGTAC	0.338
CACTTCGC	-0.0817
CCATCAAC	0.175
CAATGAAG	0.157
AATAGTAT	0.108

Sequence	PBM E-score
AACAGAGA	-0.103
ATGGGGCC	-0.277
CTATGTTC	0.217
ACACTAGC	-0.024
AACGGTTA	0.00042
AACTTATT	0.0869
AGACCACT	-0.0279
AATAAGTC	-0.114
GCCAGCGA	-0.121
AATTCTGC	-0.0278
GAGTGGGC	-0.277
AAGCGGCG	-0.104
CCGACTCG	-0.149
AGATTTGG	-0.246
TACATCAA	0.209
CACAACCA	0.0953
CGGCGTGC	-0.145
GGGCTAAC	-0.112
AACTCATC	0.124
CACGCTAG	0.0307
CCGAAACC	-0.196
ACTCCATG	-0.134
AGAATCAA	-0.0862
CCGTTCAA	-0.0267
AACGGAAG	0.0569

Sequence	PBM E-score
GTAATCCA	0.225
AACACTGA	0.157
CTATTGCC	0.231
GCAGAGCC	-0.173
CCTCTGGC	-0.306
AGGGAGAC	-0.16
ACGTGGAA	-0.046
TTCGAAAA	0.0802
AGGATGAG	-0.0928
TAGCAGAA	0.0832
ATTTAGCA	0.111
ACCAAGAA	0.0562
CGCGAATC	0.0363
AAGTAGTA	0.112
ATACTCCC	-0.0986
CATCTGCA	-0.0636
GGATCCCC	-0.367
CTTGGCCC	-0.38
GTGCTACA	0.178
AGCTTGTG	-0.00177
GTTGCCCA	0.103
ATCAGTGC	-0.00075
CTGAGAGA	-0.301
ATGAAGTG	-0.204
GTAACCGA	0.145

Sequence	PBM E-score
ACCTCCAG	-0.0604
CGACAGGC	0.217
ACGGGTAG	0.0227
GCCATGAC	-0.192
GTAATTCA	0.306
ATGTACGA	0.163
CAGGAACG	0.466
AAAAGCGT	-0.0234
AAGCTATC	0.0724
CATATGCC	0.05
GCGGATCA	-0.145
TCTCACCA	-0.192
AGATAACT	-0.141
ATTTGCCA	-0.141
AGCGTAAA	0.12
ATGCTAAA	0.118
CAAAAATC	-0.0172
AACACGCG	0.301
ACCGCAAT	-0.0425
CATCTTGC	-0.133
CCACAGCA	-0.0823
ATGGTGTA	0.191
GGAGCACA	-0.177
AGCGCTCC	-0.197
AAAATTTG	0.113

Sequence	PBM E-score
GGTGCGTA	0.195
GCACATCA	0.0286
TAGACTAA	-0.108
AGGAGATG	-0.0164
CACTGTGG	-0.108
ACGTACAG	0.123
ACGACGCG	0.0915
GCAGCAGC	0.109
GTTCCAGA	-0.0891
ATTCAATC	-0.0884
GGGCCAAA	-0.242
CGTTGATA	0.114
ACACCTGG	0.104
GTGTCACA	0.102
CCAGGGAA	-0.242
TGGGTTAA	0.135
ACGTTACC	0.173
CGATGGGA	-0.272
ATGGTTCG	-0.00557
GGTCAATA	-0.0849
GAAGGTCC	-0.134
AATTAATT	0.138
AGGACGTG	-0.0454
GTTCTCGA	-0.028
CTAGTGTC	-0.194

Sequence	PBM E-score
AAAGGTCC	-0.0572
ACCTTGGA	-0.0979
AGAGAGTG	-0.133
CTGGATAA	-0.0226
ACTTATGA	-0.0662
GCTTTTTA	0.139
ACGTGAGA	0.00152
AGGCCCCC	-0.0567
GTTCGATA	0.00894
TAAGTCGA	-0.0559
ATCCGGGC	-0.214
AATCCCCG	-0.129
CCCCAATA	-0.142
AAACCATC	0.023
AACCGACG	0.0429
CCGGAAGA	0.029
AGTAAGGC	0.195
GAGTTGGC	-0.0348
AGTGACTC	-0.12
CATACGCC	-0.0598
ACCACGCA	0.0269
AGTTCTAA	-0.0642
CCAGCGAC	-0.0489
AAAAGACC	-0.0992
CATGCAAC	0.0717

Sequence	PBM E-score
AGTATAGG	0.0641
CTAATAAC	0.161
ATGCCGCC	-0.117
CTTGCATC	-0.16
ACATCCTA	0.0924
CAAGGCTA	0.156
CTCGCGCC	-0.182
AGCGACTA	0.0607
GTGCGTGA	0.165
AATGCGTA	0.171
ACTCTTTA	0.159
ACCCAGGT	-0.00688
AACAAAAA	0.244
AGGTTAGG	-0.0707
GCGAGTCA	-0.208
CGCAACTC	-0.0761
TAGCACCA	-0.0284
ATCGTCGG	-0.21
ACTCGTTC	0.122
ACTGCGTC	-0.0852
CTTGCGAA	0.142
ACGGAAAT	0.105

Reference: the supplement of paper PMC3334620
